According to the supplement of paper PMC4604168 (melanoma cell lines):
Some of the results follow. Repeats are few or missing, and single values can be far off.

test system: RVH-421; experiment: cell count relative to DMSO control; melanoma cells; higher = more viable cells; conditions: library dose: low library concentration; 72 h
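Note: cell number obtained by counting DAPI-stained nuclei in high-throughput microscope images with image analysis software, screen run in 1,536-well plates.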

Structure (SMILES) | cell count
COCC[n+]1c2c(n(Cc3cnccn3)c1C)C(=O)c1ccccc1C2=O + COc1ccc2c(c1)CCC1C2CCC2(C)C(NCCCCCCN3C(=O)C=CC3=O)CCC12 [U73122] (first compound 0.0004 µM, partner dose 0.4 µM) | 97.6%
Nc1cccc2c1CN(C1CCC(=O)NC1=O)C2=O (stereo unspecified) [lenalidomide] + CCCCCCCCCCCC1=C(O)C(=O)C=C(O)C1=O [Embelin] (first compound 1 µM, partner dose 1.2 µM) | 103%
O=C(CCCCCCC(=O)Nc1ccccc1)NO [vorinostat] + c1cc(-c2cnn3cc(-c4ccc(OCCN5CCCCC5)cc4)cnc23)ccn1 [Dorsomorphin] (first compound 0.08 µM, partner dose 0.4 µM) | 88.9%

test system: SkMel28; experiment: as above; conditions: library dose: low library concentration; 72 h

Structure (SMILES) | cell count
Cn1c(Nc2ccc(C(F)(F)F)cc2)nc2cc(Oc3ccnc(-c4ncc(C(F)(F)F)[nH]4)c3)ccc21 + CCCCCCCCCCCC1=C(O)C(=O)C=C(O)C1=O [Embelin] (first compound 0.08 µM, partner dose 1.2 µM) | 47.6%
O=C(CCCCCCC(=O)Nc1ccccc1)NO [vorinostat] + O=C(O)C(=O)Nc1sc2c(c1C(=O)O)CCNC2 [TCS401] (first compound 0.08 µM, partner dose 1.66667 µM) | 68.8%
O=C(CCCCCCC(=O)Nc1ccccc1)NO [vorinostat] + CCc1ccc(CCOc2ccc(CC3SC(=O)NC3=O)cc2)nc1 [pioglitazone] (first compound 0.08 µM, partner dose 2 µM) | 84.7%
C#Cc1cccc(Nc2ncnc3cc(OCCOC)c(OCCOC)cc23)c1 [erlotinib] + O=C(Nc1ccccc1)c1cc([N+](=O)[O-])ccc1Cl [GW9662] (first compound 0.8 µM, partner dose 2 µM) | 83.8%
C#Cc1cccc(Nc2ncnc3cc(OCCOC)c(OCCOC)cc23)c1 [erlotinib] + Oc1nc(-c2ccc(C(F)(F)F)cc2)nc2c1CSCC2 [XAV939] (first compound 0.8 µM, partner dose 2 µM) | 82.7%
COCC[n+]1c2c(n(Cc3cnccn3)c1C)C(=O)c1ccccc1C2=O + CCc1ccc(CCOc2ccc(CC3SC(=O)NC3=O)cc2)nc1 [pioglitazone] (first compound 0.0004 µM, partner dose 2 µM) | 76.6%
Cn1c(Nc2ccc(C(F)(F)F)cc2)nc2cc(Oc3ccnc(-c4ncc(C(F)(F)F)[nH]4)c3)ccc21 + N#Cc1c(O)c2c(-c3ccc(-c4ccccc4O)cc3)csc2[nH]c1=O [A769662] (first compound 0.08 µM, partner dose 2 µM) | 55.7%
O=C(CCCCCCC(=O)Nc1ccccc1)NO [vorinostat] + COc1ccc(-c2ccc3c(N4CCOCC4)nc(N4C[C@@H](C)O[C@@H](C)C4)nc3n2)cc1CO [KU0063794] (first compound 0.08 µM, partner dose 0.02 µM) | 101%
C#Cc1cccc(Nc2ncnc3cc(OCCOC)c(OCCOC)cc23)c1 [erlotinib] + N#Cc1c(O)c2c(-c3ccc(-c4ccccc4O)cc3)csc2[nH]c1=O [A769662] (first compound 0.8 µM, partner dose 2 µM) | 91.7%
COCC[n+]1c2c(n(Cc3cnccn3)c1C)C(=O)c1ccccc1C2=O + COC(=O)c1sccc1S(=O)(=O)Nc1ccc(Nc2ccccc2)cc1OC [GSK0660] (first compound 0.0004 µM, partner dose 1 µM) | 90.2%
COCC[n+]1c2c(n(Cc3cnccn3)c1C)C(=O)c1ccccc1C2=O + Cn1cc(/C=C2\C(=O)Nc3cccnc32)c2ccccc21 [GW441756] (first compound 0.0004 µM, partner dose 0.4 µM) | 87.7%
Cn1c(Nc2ccc(C(F)(F)F)cc2)nc2cc(Oc3ccnc(-c4ncc(C(F)(F)F)[nH]4)c3)ccc21 + CCc1ccc(CCOc2ccc(CC3SC(=O)NC3=O)cc2)nc1 [pioglitazone] (first compound 0.08 µM, partner dose 2 µM) | 64%
COCC[n+]1c2c(n(Cc3cnccn3)c1C)C(=O)c1ccccc1C2=O + CC(C)CCN1c2nc(Nc3cc(F)c(O)c(F)c3)ncc2N(C)C(=O)C1C [BID1870] (first compound 0.0004 µM, partner dose 0.2 µM) | 88.5%
